# Read counts are not given, so values of variants with three or more changes are uncertain.
# B1: LINE1-mini (parent)
# chain: GGCAGAGCUCAACACAGCGUGGCAAAGUGGCUGUGGCUAGACUGCC
# Variants of: B1
# Experiment: self-cleavage, relative activity (ratio to wild type); higher = more cleavage; in vitro, sequencing; the parent is a self-cleaving ribozyme
row,Variant,self-cleavage
1,GGCAGAGCUCAACACCACGUCGCAAAGCGGCUGUGGCAAGAUUGCC,0.01
2,GGCAGAGCUCAACAUAGCGUGGCAAAGUGGUUGUGUCCAGGCUGCC,0.02
3,GGCAGAGCUCAACAUAGCGUGGCAAAGUUUCUGUGGCUAGACUGCC,0.03
4,GGCAGAGCUCAACACCACGUAGCAAAGUGGCUAUGGCUAGACUGCC,0.05
5,GGCAGAGCUCAACAUAGCGUGGCAAAGUGGCUUUGCCUAGACAGCC,0.01
6,GGCAGAGCUCAACACCGCGUGGCAAUUUGGCUGUGGCUAGACUGCC,0.05
7,GGCAGAGCUCAACAUAGCGUGCUAACGUGGCUGUGGCUAGACUGCC,1.35
8,GGCAGAGCUCAACAUAGCGUGGUAAAGUGUCAGUGGCUAGACUGCC,0.04
9,GGCAGAGCUCAACACCGCGUGGAAAAUUGGCUGUGGCUAGACUGCC,1.01
10,GGCAGAGCUCAACAUAGCGUGUCCAAUUGGCUGUGGCUAGUCUGCC,0.19
11,GGCAGAGCUCAACACCGCGUGGCCAAGUGGCUGUGGCUACACUGCC,0.01
12,GGCAGAGCUCAACAUAGCGUGGCAAAGUGGCUGUCCCUAGACUGAC,0.01
13,GGCAGAGCUCAACAUAGCGUAGCCAAGUGGAUGUGGCUAGAAUGCC,0.02
14,GGCAGAGCUCAACACCGUGCGGCAAUGUCGCUGUGUCUAGACUGCC,0.09
15,GGCAGAGCUCAACACCGCGUGGCAACGUGGCUGUGGAUAGACUGAC,0.03
16,GGCAGAGCUCAACACCGCGUGGCAUAGUAUCUGUGGCUAGAGUGCC,0
17,GGCAGAGCUCAACACCGCCCGGCACAGUGGCUGUGGCUAGACUGCC,0.08
18,GGCAGAGCUCAACAUAACGUGGGUAAGUGUCUGUGGCUAGGCUGCC,0.04
19,GGCAGAGCUCAACACCGCGUGGCACAGUGGCUGUGGCUAGACCGCC,0.08
20,GGCAGAGCUCAACAUAGCGUGGCAAAGCGUCGGUGGCUAGACUGCC,0.47
21,GGCAGAGCUCAACAUAGCAUGGCAAAGCGGCUGUGGCUAGACUGCC,1.32
22,GGCAGAGCUCAACACCCCGUGGCAAAGUGGCUGUCGCUAGACUGCC,0.07
23,GGCAGAGCUCAACACCUCGUGGCAAAGUGGCCGUGUCUAGACUGCC,0.05

row,Variant,self-cleavage
1,GGCAGAGCUCAACAUAGCGUGCCAAAGUGGCUGUGGAUAGACUGCC,0.12
2,GGCAGAGCUCAACAUAGCGUGGCAAAGUUGCUGUUGCUAGACUGCC,0.09
3,GGCAGAGCUCAACAUAGCGUUGCAAAGUGGCUGUUGCUAUACUGCC,0.23
4,GGCAGAGCUCAACACCACAUGGCAAAGUGGCUGUCGCUAGACUGCC,0
5,GGCAGAGCUCAACAUAGCGUGGCAAAGUGGCUGUGGCUAGACCGCG,0.14
6,GGCAGAGCUCAACACCGCGUCGCACAGUGGUUGUGGCUAGACUGCC,0.03
7,GGCAGAGCUCAACACCUUGUGGCAAAGUGUCUGUGGCUCGACUGCC,0.02
8,GGCAGAGCUCAACAUAGCGUAGCAAAGUGGCUGUGGCUAGACAGCC,0.05
9,GGCAGAGCUCAACACCUAGUGGCAAAGUGGGUGUGGCUAGACUGCC,0.01
10,GGCAGAGCUCAACAUAGCUUGGCAAUGUGGCUGCGGCUAGACUGCC,0.33
11,GGCAGAGCUCAACACCGAGUGGCAAAGUGGCUGUGGCUAGACUGCA,0.05
12,GGCAGAGCUCAACAUAGCUUGGCAAAGUGGCUGUGGCUAGACUGAC,0.39
13,GGCAGAGCUCAACAUAGCGUGGCAAAGUGGCUUUGGCUAGUCUGCC,0.16
14,GGCAGAGCUCAACAUAGCGUGGCAAAGUAGCUGUGGCUAUAAUGCC,0.04
15,GGCAGAGCUCAACAUAGCGUGGCAAAGUGGCUCUGGCUAGACUGCG,0.1
16,GGCAGAGCUCAACAUAGCGUGGCAAAGUGGUUGUGGCUAGACUGCA,0.02
17,GGCAGAGCUCAACACCGAGGGGCAAAGUGGCUGUGGCUAGACUGCC,0.01
18,GGCAGAGCUCAACACCGCUUGGCAAAGUCGCUGUGGCUCGACUGCC,0.02
19,GGCAGAGCUCAACAUAGCGCGGCAAAGUGGCUGUGGUUAGACUGCC,0.09
20,GGCAGAGCUCAACAUAGCGUGGCAAAGUUGCUUUGGCUAGACUGCC,0.1
21,GGCAGAGCUCAACACCGCGUAGCAACGUGGCUGUGGCUAGACUGUC,0.01
22,GGCAGAGCUCAACACCGCGUCGGAAAGUGGCUGUUGCUAGAGUGCC,0.01
23,GGCAGAGCUCAACAUAGCGUGGCAAAGUGGCUGUGCCUAGAUUGCG,0.02

row,Variant,self-cleavage
1,GGCAGAGCUCAACAUAGCGUGGCAAAGUGGCAGGGGCUAGACUGCU,0.01
2,GGCAGAGCUCAACACCGCGUGGCAUAAUGGCUGUGGCAAGACUGCC,0.1
3,GGCAGAGCUCAACACCCCGGGGCAAAGUGGCUGUGGCUAGACCGCC,0.04
4,GGCAGAGCUCAACAUAGCGUGGCAAAGUGGCUGUAGUUAGAAUGCC,0.01
5,GGCAGAGCUCAACACCGCGUGGCAAAGUGGUUGUGGGUAGAUUGCC,0.02
6,GGCAGAGCUCAACAUAGCGUGGCAAAGUAGCUAUGGCUAGACUGCC,1.47
7,GGCAGAGCUCAACAUAGCGCGGCAAAGUGGCUAGGUCUAGACUGCC,0.04
8,GGCAGAGCUCAACACCGCGUGGCAAUGUGGCUGUUGCUAGAUUGCC,0
9,GGCAGAGCUCAACAUAGCGUGGGAAAGUGGCUGUGGCCAGACUGCC,2.04
10,GGCAGAGCUCAACAUAGCGUGGCAAAGUCACUGUGCCUAGACUGCC,0.06
11,GGCAGAGCUCAACACCGCGUGGCAGAGUGGCUGUGGAUAGACUGCC,0.01
12,GGCAGAGCUCAACAUAGCAUGGUACAAUGGCUGUGGCUAGACUGCC,0.95
13,GGCAGAGCUCAACACCGAGUGGCAAAGUGGCUCUGGCUAGACUGCC,0
14,GGCAGAGCUCAACAUAGCUUGGCAAAGUGGCUGAGGCUAGACUGCC,0.03
15,GGCAGAGCUCAACAUAGCGUGGCAAAGUGAUUGUGGCUGGCCUGCC,0.02
16,GGCAGAGCUCAACAUAUCGUGACAAAGUGGCUGUGGCUAAACGGCC,0.01
17,GGCAGAGCUCAACACCCCGUGGCAAGGUGGCUAUGGCUAGACGGCA,0.04
18,GGCAGAGCUCAACACCGCGUGGCAAUGAGGCUGUGGCUAGUCUGCC,0.14
19,GGCAGAGCUCAACACCGCGUAGCAAAUUGGCUGUGGCUAAACUGCC,0.08
20,GGCAGAGCUCAACAUAGCGUGGUAAAGUGGCUGUGGCAAGACUCCC,0.51
21,GGCAGAGCUCAACACCGCGUGGCAUAGUGGUUGUGGCUAGACUGCC,0.04
22,GGCAGAGCUCAACACCGCGUGGCCUAGUGGCUCUGGCUAGAAUGCC,0.03
23,GGCAGAGCUCAACACCGCUUGGCAACGUGUCUGUGGCUAGACUGCC,0.01

row,Variant,self-cleavage
1,GGCAGAGCUCAACAUAGCGCGGCAAAGUGGCUGUGGCUGGACUGCC,0.05
2,GGCAGAGCUCAACAUAGCUAGGCAAAGUGGGUGUGGCUAGACUGCC,0.06
3,GGCAGAGCUCAACAUAGCGUGGCAAAGUGACUGUCGCUAGACUGCC,0.1
4,GGCAGAGCUCAACACCGCGUGGUAAAGUGGCUGUGGCUAGCGUGCC,0.08
5,GGCAGAGCUCAACAUAGCGUGGCAAAGUGGCUGUAGGUAGACUGCC,0.05
6,GGCAGAGCUCAACAUAGCGUAGCAAAGUGGCUGAGGCUAGAUUGCC,0.07
7,GGCAGAGCUCAACAUAGCGUGGCAAAGAGGCUGUGGAUAGACUGCC,0.11
8,GGCAGAGCUCAACAUAGCGUGGCAAAGUGGCAGUGGCUAGACUGAC,0.05
9,GGCAGAGCUCAACACCACGUGGCAAAGUGGCUGUAGCUAGACUGCC,0.01
10,GGCAGAGCUCAACAUAACGAGGCAAAGUGGCUGUGGCUAGACUGCC,0.03
11,GGCAGAGCUCAACAUAGCGUGGCAAAGUGGCUGUGGCUAGAUUGAC,0.02
12,GGCAGAGCUCAACAUAGCGUGGCAAAGUCGCCGUGGCUAGACUGCC,0.06
13,GGCAGAGCUCAACAUAGCGUGGCAAAAUGGCUGUGGCCAGAGUGCC,0.04
14,GGCAGAGCUCAACACCGCGUGGUAAAGUGGCUGUGUCUAGACUGCC,0.06
15,GGCAGAGCUCAACACCUCGUGGCAGAGUGGUUGUGGCUAUACUGCC,0.01
16,GGCAGAGCUCAACACCCCGUGGCAAAGUGGCUGUGGCUAGAGUGCC,0.04
17,GGCAGAGCUCAACAUAGCGUGGCAAAGUGGCUGUGUCUAGACUGCU,0.05
18,GGCAGAGCUCAACAUAGCGUUGCAAAGUGGCUGAGGCUAAACUGCC,0.04
19,GGCAGAGCUCAACAUAUCUAGGCAAAGUGGCUGUGGCUAGACUGCC,0.26
20,GGCAGAGCUCAACACCGCGUAGCAAAGUGGCUGUGUUUAGACUGCC,0.07
21,GGCAGAGCUCAACAUAACGUGGCAAAGUUGCUGUGGCUAGACUGCC,0.05
22,GGCAGAGCUCAACAUAUCGUGGCAAAGUGGCUGUGGCUAGACUAUC,0.02
23,GGCAGAGCUCAACAUAGCGUGGCAAACGGGCUGGGGCUAAACUGCC,0.02

row,Variant,self-cleavage
1,GGCAGAGCUCAACACCGCGUGGCAGAGUGGCGGUGGCUAGACUGCC,0.1
2,GGCAGAGCUCAACAUAGCGUGGCAAAGCGGCUUUGGCUAGACUGCC,0.61
3,GGCAGAGCUCAACACCGCGUGGCAUAGUGGCAGUGGCUAGACUCCC,0.02
4,GGCAGAGCUCAACAUAGCGUGGCAAAGUGGCUCUGUCUAGACUGCC,0
5,GGCAGAGCUCAACACCGCGUGGCCAUAUGGCUGUGGCUAGACUGCC,0
6,GGCAGAGCUCAACAUAGCGUGGCAAAAUGGCAGUGGAUAGACUCCC,0.07
7,GGCAGAGCUCAACAUAGCGUGGCAAAGUGGCUGUGGCAAGAAUGCC,0.15
8,GGCAGAGCUCAACAUACCGUGGUAAAGUGGCGCUGGCUAGACUGCC,0.01
9,GGCAGAGCUCAACAUAUCGUGGCAAAGUGGCUGUUGCUAGACUGCC,0.09
10,GGCAGAGCUCAACAUAGCAAGGCAAAGUGGCUGUGGCUAGACUGCC,0.63
11,GGCAGAGCUCAACAUAGCGUGGCAAAGUGGCUGUUGCCAGACUGCC,0.03
12,GGCAGAGCUCAACAUAGCGUGGCAAAGUGGCUGUUGCGAGACUGCC,0.05
13,GGCAGAGCUCAACAUAUCGUGGCAAAGUGGCUGUGGCUAGGCUGCC,0
14,GGCAGAGCUCAACAUAGCGAGGCAAAGUGGCUGUGGCUAGAGUGCC,0.03
15,GGCAGAGCUCAACAUACCGUGACAAAGUGGCUGUGGCUAGACUGCC,0.09
16,GGCAGAGCUCAACAUAGCGUGGGAAAGUGUCUGUGGCUAUACUGCC,0.04
17,GGCAGAGCUCAACAUAGCGGGGGAAUGUGGCUGUGGCUAGACUGCC,0.15
18,GGCAGAGCUCAACAUAGCGUGGCAAAGUGGCUGUGGCUAGAUUGCG,0.05
19,GGCAGAGCUCAACAUAACGUGGCAAAGGGACUGUGGCUAGACUGCC,0.03
20,GGCAGAGCUCAACACCGCCUGGCAAAGUGGUUUUGGCUUGAUUGCC,0
